These results are taken from PMC10618452.

Chains of the proteins cited; added tags and fusions are not shown. Lines headed by an entry give the natural chain unless they say otherwise; changes in a name come on top.
UniProt Q03468: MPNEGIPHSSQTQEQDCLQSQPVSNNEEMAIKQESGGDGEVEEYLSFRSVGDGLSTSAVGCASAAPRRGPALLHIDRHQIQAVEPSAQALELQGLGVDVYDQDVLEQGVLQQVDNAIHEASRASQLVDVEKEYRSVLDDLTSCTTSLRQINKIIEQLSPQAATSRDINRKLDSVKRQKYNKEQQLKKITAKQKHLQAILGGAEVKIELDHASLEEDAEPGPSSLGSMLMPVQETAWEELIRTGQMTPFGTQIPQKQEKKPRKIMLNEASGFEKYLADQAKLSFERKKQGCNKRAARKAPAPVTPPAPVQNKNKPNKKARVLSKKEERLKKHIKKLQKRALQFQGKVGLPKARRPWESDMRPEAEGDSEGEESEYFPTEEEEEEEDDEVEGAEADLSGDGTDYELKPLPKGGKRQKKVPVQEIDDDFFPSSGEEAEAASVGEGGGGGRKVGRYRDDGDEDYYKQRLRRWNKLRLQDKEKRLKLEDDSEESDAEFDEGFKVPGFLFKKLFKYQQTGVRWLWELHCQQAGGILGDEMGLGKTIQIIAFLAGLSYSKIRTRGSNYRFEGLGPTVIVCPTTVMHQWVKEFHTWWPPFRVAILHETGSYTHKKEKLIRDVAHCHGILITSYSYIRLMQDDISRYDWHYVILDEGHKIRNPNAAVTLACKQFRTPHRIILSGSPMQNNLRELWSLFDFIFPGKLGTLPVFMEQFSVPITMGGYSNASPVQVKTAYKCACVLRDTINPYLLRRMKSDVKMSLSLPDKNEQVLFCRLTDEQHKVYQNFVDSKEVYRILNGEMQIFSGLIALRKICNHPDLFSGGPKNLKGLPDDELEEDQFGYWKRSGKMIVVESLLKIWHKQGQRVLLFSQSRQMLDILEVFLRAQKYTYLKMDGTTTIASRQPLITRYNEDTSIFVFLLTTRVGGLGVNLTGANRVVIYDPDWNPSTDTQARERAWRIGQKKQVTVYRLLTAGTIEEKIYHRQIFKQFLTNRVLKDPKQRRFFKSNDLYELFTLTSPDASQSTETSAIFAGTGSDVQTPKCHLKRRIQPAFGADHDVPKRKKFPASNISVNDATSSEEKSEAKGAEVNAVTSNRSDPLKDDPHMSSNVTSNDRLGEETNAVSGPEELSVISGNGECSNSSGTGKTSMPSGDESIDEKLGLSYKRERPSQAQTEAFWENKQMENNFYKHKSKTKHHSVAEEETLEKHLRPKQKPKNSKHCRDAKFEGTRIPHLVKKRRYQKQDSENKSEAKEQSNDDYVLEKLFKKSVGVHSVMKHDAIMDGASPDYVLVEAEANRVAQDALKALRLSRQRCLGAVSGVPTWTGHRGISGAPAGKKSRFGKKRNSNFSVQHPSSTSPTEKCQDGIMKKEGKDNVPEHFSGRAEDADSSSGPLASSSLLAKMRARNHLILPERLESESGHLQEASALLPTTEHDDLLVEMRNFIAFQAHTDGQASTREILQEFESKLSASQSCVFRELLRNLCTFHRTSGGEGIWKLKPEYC
UniProt O60884: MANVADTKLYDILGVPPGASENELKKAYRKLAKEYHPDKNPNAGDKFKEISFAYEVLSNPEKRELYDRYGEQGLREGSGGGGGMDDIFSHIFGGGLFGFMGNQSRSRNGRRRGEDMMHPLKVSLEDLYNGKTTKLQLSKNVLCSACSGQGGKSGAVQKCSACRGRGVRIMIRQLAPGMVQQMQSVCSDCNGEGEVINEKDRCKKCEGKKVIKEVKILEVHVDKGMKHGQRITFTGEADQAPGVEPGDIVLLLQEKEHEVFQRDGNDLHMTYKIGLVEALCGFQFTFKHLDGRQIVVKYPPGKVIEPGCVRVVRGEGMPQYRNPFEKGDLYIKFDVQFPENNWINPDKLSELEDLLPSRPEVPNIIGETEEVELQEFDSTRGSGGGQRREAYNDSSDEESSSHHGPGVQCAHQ
UniProt P11142: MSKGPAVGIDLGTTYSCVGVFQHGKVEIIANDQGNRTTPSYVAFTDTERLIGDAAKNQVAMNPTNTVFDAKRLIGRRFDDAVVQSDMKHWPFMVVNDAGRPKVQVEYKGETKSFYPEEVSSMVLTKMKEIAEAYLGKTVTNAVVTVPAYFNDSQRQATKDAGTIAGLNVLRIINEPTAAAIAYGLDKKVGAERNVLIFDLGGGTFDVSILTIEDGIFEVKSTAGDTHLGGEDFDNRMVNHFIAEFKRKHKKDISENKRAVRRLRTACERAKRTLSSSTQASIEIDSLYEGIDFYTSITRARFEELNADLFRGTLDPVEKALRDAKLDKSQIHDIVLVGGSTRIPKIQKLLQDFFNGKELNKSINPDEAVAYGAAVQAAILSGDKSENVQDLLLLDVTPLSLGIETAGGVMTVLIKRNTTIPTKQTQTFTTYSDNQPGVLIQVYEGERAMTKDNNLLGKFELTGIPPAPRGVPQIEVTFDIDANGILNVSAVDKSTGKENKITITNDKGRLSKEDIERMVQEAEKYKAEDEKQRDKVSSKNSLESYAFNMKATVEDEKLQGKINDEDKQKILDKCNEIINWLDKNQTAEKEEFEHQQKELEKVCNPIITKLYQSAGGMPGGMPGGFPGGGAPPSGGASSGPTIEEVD

The target in experiment [1] is myc-tagged WT CSB (Cockayne syndrome group B protein), ectopically expressed (human) (UniProt Q03468). Briefly: co-IP; chromatin co-IP: chromatin fraction solubilised in EBC-150 buffer with Universal nuclease, NaCl adjusted to 300 mM; primary antibody overnight, Protein G agarose; washed 5 times with EBC-300 buffer; with or without UV.
For experiment [2], the target named is CSB (Cockayne syndrome group B protein), endogenous in HeLa cells (human (endogenous in HeLa)) (UniProt Q03468). Briefly: proximity ligation; Duolink In Situ Red kit on fixed, permeabilised HeLa cells (WT, DJ2^-/-), with or without UV (20 J/m^2), fixed 1.5 h after; CSB^-/- cells as negative control.
Experiment [3] addresses myc-tagged WT CSB (Cockayne syndrome group B protein), ectopically expressed (human) (UniProt Q03468). The experiment can be described thus: co-IP; whole-cell lysates of HeLa cells (CSB^-/- cells expressing CSB, AA-CSB or CSB (K205R); WT and DJ2^-/- cells), with or without UV (20 J/m^2), harvested 1.5 h after; lysis in 50 mM Tris-HCl pH 7.4, 150 mM NaCl, 1% NP-40, 1 mM EDTA, 1% sodium deoxycholate; primary antibody (anti-CSB) overnight, Protein G agarose; washes with 150, 300 and 450 mM NaCl; Western blot. A general note: In western blotting, separated proteins are transferred to a membrane and probed.

Experiment [4] deals with CSB (K205R), myc-tagged (human) (UniProt Q03468). The experiment is described as above.
Experiment [5] deals with CSB (Cockayne syndrome group B protein), endogenous in HeLa cells (human (endogenous in HeLa)) (UniProt Q03468). Briefly: condition: only cells treated with 40 uM of the sumoylation inhibitor 2-D08; proximity ligation; Duolink PLA on HeLa cells pre-treated with 40 uM of the sumoylation inhibitor 2-D08 for 6 h before UV (20 J/m^2), cultured 1.5 h more with 2-D08.
Experiment [6] shares this target. The experiment can be described thus: co-IP; whole-cell lysates of HeLa cells (CSB^-/- cells expressing CSB, AA-CSB or CSB (K205R); WT and DJ2^-/- cells), with or without UV (20 J/m^2), harvested 1.5 h after; lysis in 50 mM Tris-HCl pH 7.4, 150 mM NaCl, 1% NP-40, 1 mM EDTA, 1% sodium deoxycholate; primary antibody (anti-CSB) overnight, Protein G agarose; washes with 150, 300 and 450 mM NaCl; Western blot.

No constants are given. Whether binding was seen depends on the method and setting. Binding seen in cells or lysates may run through a third protein. Some results given as binding are weak or reduced against the parent protein; the word gives no strength.

With “DNAJA2 (heat shock protein, HSP40 family), endogenous in HeLa cells (from UniProt O60884 1-412)”, the binding result is recorded as “binds” in experiment [1], “binds” in experiment [2], “binds” in experiment [3] and “binds weakly” in experiment [4].

For “HSC70 (71 kDa heat shock cognate protein), endogenous in HeLa cells (from UniProt P11142 1-646)”, the binding result in experiment [1] was “binds”; in experiment [5], “no binding”; in experiment [2], “binds”; in experiment [3] it was “binds”; in experiment [6], “binds”; in experiment [4] it was “binds weakly”.
